{"source": "patent US10889573B2", "about": "“Anthelmintic quinoline-3-carboxamide derivatives” (Bayer Animal Health GMBH, priority 2016, dated 2021)", "note": "Some results were stated once for a whole list of compounds, not compound by compound. At least one compound was matched to its structure with a doubt left."}
{"biological_target": "C. elegans Slo-1a (Caenorhabditis elegans, UniProt Q95V25)", "sequence (Q95V25 whole entry)": "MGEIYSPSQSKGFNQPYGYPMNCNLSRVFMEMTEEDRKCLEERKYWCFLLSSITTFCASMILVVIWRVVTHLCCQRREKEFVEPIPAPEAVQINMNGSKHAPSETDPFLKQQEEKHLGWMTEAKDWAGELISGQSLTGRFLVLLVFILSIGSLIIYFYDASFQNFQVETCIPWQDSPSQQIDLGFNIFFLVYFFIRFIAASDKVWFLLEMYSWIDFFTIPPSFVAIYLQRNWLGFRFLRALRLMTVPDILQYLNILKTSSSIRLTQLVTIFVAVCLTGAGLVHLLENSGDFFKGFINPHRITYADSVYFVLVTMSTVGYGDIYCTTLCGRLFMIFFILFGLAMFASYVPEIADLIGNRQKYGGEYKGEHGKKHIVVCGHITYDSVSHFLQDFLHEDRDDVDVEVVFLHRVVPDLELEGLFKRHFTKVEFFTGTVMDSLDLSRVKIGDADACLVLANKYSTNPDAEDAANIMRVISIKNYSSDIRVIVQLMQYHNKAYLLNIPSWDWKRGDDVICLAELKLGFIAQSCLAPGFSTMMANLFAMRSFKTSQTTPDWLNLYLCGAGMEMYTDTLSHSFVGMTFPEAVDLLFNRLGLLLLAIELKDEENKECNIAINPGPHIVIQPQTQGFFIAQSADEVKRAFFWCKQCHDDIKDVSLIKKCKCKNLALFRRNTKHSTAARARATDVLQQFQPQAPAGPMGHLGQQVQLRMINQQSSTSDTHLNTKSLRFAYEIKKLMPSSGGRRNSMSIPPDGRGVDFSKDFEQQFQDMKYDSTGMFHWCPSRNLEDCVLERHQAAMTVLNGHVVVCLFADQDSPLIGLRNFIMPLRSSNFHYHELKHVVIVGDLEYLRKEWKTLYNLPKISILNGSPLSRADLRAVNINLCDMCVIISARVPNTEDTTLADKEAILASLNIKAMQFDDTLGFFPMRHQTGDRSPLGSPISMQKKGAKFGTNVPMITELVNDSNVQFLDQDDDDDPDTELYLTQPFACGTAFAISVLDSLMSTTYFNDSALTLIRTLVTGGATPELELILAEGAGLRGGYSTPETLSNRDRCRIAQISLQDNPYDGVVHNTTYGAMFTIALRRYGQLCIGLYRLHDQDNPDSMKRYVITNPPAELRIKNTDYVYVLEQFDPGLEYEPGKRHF", "conditions": "CHO cells expressing C. elegans Slo-1a, voltage sensitive dye"}
{"compound": "8-(3,5-dichlorophenyl)-N-[(4S)-3,4-dihydro-2H-chromen-4-yl]-4-[(2-hydroxyethyl)sulfanyl] quinoline-3-carboxamide [Example 264]", "pE50 (negative decadic logarithm of EC50)": "6,5-7,5"}
{"compound": "CC(c1ccccc1)N(C)c1c(C(=O)NC2CCc3ccccc32)cnc2c(-c3cc(Cl)cc(Cl)c3)cccc12", "note": "(mixture of isomers) [Example 114]", "pE50 (negative decadic logarithm of EC50)": "6,5-7,5"}
{"compound": "O=C(NC1CCOc2ccccc21)c1cnc2c(-c3cc(Cl)c(F)c(Cl)c3)cccc2c1N1CCC(O)C1", "note": "(mixture of isomers) [Example 193]", "pE50 (negative decadic logarithm of EC50)": "> 8,5"}
{"compound": "O=C(NC1CCOc2ccccc21)c1cnc2c(-c3cc(Cl)ccc3F)cccc2c1N1CCC(O)C1", "note": "(mixture of isomers) [Example 223]", "pE50 (negative decadic logarithm of EC50)": "> 8,5"}
{"compound": "Cc1cc(F)cc(-c2cccc3c(N4CCC(O)C4)c(C(=O)NC4CCOc5ccccc54)cnc23)c1", "note": "(mixture of isomers) [Example 244]", "pE50 (negative decadic logarithm of EC50)": "> 8,5"}
{"compound": "COc1c(-c2cccc3c(N4CCC(O)C4)c(C(=O)NC4CCOc5ccccc54)cnc23)ccc(F)c1F", "note": "(mixture of isomers) [Example 245]", "pE50 (negative decadic logarithm of EC50)": "7,5-8,5"}
{"compound": "COc1cc(F)c(-c2cccc3c(N4CCC(O)C4)c(C(=O)NC4CCOc5ccccc54)cnc23)cc1F", "note": "(mixture of isomers) [Example 246]", "pE50 (negative decadic logarithm of EC50)": "6,5-7,5"}
{"compound": "O=C(NC1CCOc2ccccc21)c1cnc2c(-c3cc(F)cc(F)c3)cccc2c1N1CCC(O)C1", "note": "(mixture of isomers) [Example 257]", "pE50 (negative decadic logarithm of EC50)": "7,5-8,5"}
{"compound": "O=C(NC1CCOc2ccccc21)c1cnc2c(-c3cc(F)ccc3Cl)cccc2c1N1CCC(O)C1", "note": "(mixture of isomers) [Example 259]", "pE50 (negative decadic logarithm of EC50)": "7,5-8,5"}
{"compound": "O=C(NC1CCOc2ccccc21)c1cnc2c(-c3cccc(Cl)c3F)cccc2c1N1CCC(O)C1", "note": "(mixture of isomers) [Example 262]", "pE50 (negative decadic logarithm of EC50)": "> 8,5"}
{"compound": "COc1ccc(Cl)cc1-c1cccc2c(N3CCC(O)C3)c(C(=O)NC3CCOc4ccccc43)cnc12", "note": "(mixture of isomers) [Example 269]", "pE50 (negative decadic logarithm of EC50)": "7,5-8,5"}
{"compound": "Cc1cc(Cl)c(F)c(-c2cccc3c(N4CCC(O)C4)c(C(=O)NC4CCOc5ccccc54)cnc23)c1", "note": "(mixture of isomers) [Example 275]", "pE50 (negative decadic logarithm of EC50)": "> 8,5"}
{"compound": "NC1CN(c2c(C(=O)NC3CCOc4ccccc43)cnc3c(-c4cc(Cl)cc(Cl)c4)cccc23)CC1F", "note": "(mixture of isomers) [Example 291]", "pE50 (negative decadic logarithm of EC50)": "7,5-8,5"}
{"compound": "O=C(NC1CCc2ccccc21)c1cnc2c(-c3cc(Cl)cc(Cl)c3)cccc2c1N1CCCC1C(=O)O", "note": "(mixture of isomers) [Example 292]", "pE50 (negative decadic logarithm of EC50)": "> 8,5"}
{"compound": "Cc1cc(F)c(-c2cccc3c(N4CCC(O)C4)c(C(=O)NC4CCOc5ccccc54)cnc23)cc1Cl", "note": "(mixture of isomers) [Example 295]", "pE50 (negative decadic logarithm of EC50)": "7,5-8,5"}
{"compound": "O=C(NC1CCOc2ccccc21)c1cnc2c(-c3cc(Cl)cc(Cl)c3)cccc2c1N1CCOC(C(F)(F)F)C1", "note": "(mixture of isomers) [Example 374]", "pE50 (negative decadic logarithm of EC50)": "> 8,5"}
{"compound": "CN(C)c1c(C(=O)NC2(C)CCCc3ccccc32)cnc2c(-c3cc(Cl)cc(Cl)c3)cccc12", "note": "(racemic) [Example 555]", "pE50 (negative decadic logarithm of EC50)": "5,3-6,5"}
{"compound": "CN(C)c1c(C(=O)NC2CCOc3c(F)cccc32)cnc2c(-c3cc(Cl)cc(Cl)c3)cccc12", "note": "(racemic) [Example 620]", "pE50 (negative decadic logarithm of EC50)": "7,5-8,5"}
{"compound": "CN(C)c1c(C(=O)NC2CCOc3c(Cl)cc(Cl)cc32)cnc2c(-c3cc(Cl)cc(Cl)c3)cccc12", "note": "(racemic) [Example 621]", "pE50 (negative decadic logarithm of EC50)": "7,5-8,5"}
{"compound": "CN(C)c1c(C(=O)NC2CCOc3ccc(Cl)cc32)cnc2c(-c3cc(Cl)cc(Cl)c3)cccc12", "note": "(racemic) [Example 622]", "pE50 (negative decadic logarithm of EC50)": "7,5-8,5"}
{"compound": "CN(C)c1c(C(=O)NC2CCOc3ccc(F)cc32)cnc2c(-c3cc(Cl)cc(Cl)c3)cccc12", "note": "(racemic) [Example 623]", "pE50 (negative decadic logarithm of EC50)": "7,5-8,5"}
{"compound": "CN(C)c1c(C(=O)NC2CCOc3c(Cl)cccc32)cnc2c(-c3cc(Cl)cc(Cl)c3)cccc12", "note": "(racemic) [Example 632]", "pE50 (negative decadic logarithm of EC50)": "6,5-7,5"}
{"compound": "O=C(N[C@H]1CCOc2ccccc21)c1cnc2c(-c3cccc(Cl)c3)cccc2c1Cl", "note": "[Example 5]", "pE50 (negative decadic logarithm of EC50)": "7,5-8,5"}
{"compound": "O=C(N[C@H]1CCOc2ccccc21)c1cnc2c(-c3cccc(Cl)c3Cl)cccc2c1Cl", "note": "[Example 7]", "pE50 (negative decadic logarithm of EC50)": "> 8,5"}
{"compound": "CN(C)c1c(C(=O)N[C@H]2CCOc3ccccc32)cnc2c(-c3cc(Cl)cc(Cl)c3)cccc12", "note": "[Example 8]", "pE50 (negative decadic logarithm of EC50)": "> 8,5"}
{"compound": "CN(C)c1c(C(=O)N[C@H]2CCc3ccccc32)cnc2c(-c3cc(Cl)cc(Cl)c3)cccc12", "note": "[Example 9]", "pE50 (negative decadic logarithm of EC50)": "> 8,5"}
{"compound": "CN(C)c1c(C(=O)N[C@H]2CCOc3ccccc32)cnc2c(-c3c(F)cccc3Cl)cccc12", "note": "[Example 10]", "pE50 (negative decadic logarithm of EC50)": "> 8,5"}
{"compound": "Cc1cc(-c2cc(Cl)cc(Cl)c2)c2ncc(C(=O)N[C@H]3CCc4ccccc43)c(N(C)C)c2c1", "note": "[Example 11]", "pE50 (negative decadic logarithm of EC50)": "> 8,5"}
{"compound": "CN(C)c1c(C(=O)N[C@H]2CCOc3ccccc32)cnc2c(-c3cc(Cl)c(F)c(Cl)c3)cccc12", "note": "[Example 13]", "pE50 (negative decadic logarithm of EC50)": "> 8,5"}
{"compound": "O=C(N[C@H]1CCOc2ccccc21)c1cnc2c(-c3cc(Cl)cc(Cl)c3)cccc2c1N1CCCC1", "note": "[Example 14]", "pE50 (negative decadic logarithm of EC50)": "> 8,5"}
{"compound": "Cc1cc(C)cc(-c2cccc3c(N(C)C)c(C(=O)N[C@H]4CCOc5ccccc54)cnc23)c1", "note": "[Example 15]", "pE50 (negative decadic logarithm of EC50)": "> 8,5"}
{"compound": "CN(C)c1c(C(=O)N[C@H]2CCCc3ccccc32)cnc2c(-c3cc(Cl)cc(Cl)c3)cccc12", "note": "[Example 16]", "pE50 (negative decadic logarithm of EC50)": "> 8,5"}
{"compound": "Cc1ccc2c(N(C)C)c(C(=O)N[C@H]3CCOc4ccccc43)cnc2c1-c1cc(Cl)cc(Cl)c1", "note": "[Example 18]", "pE50 (negative decadic logarithm of EC50)": "> 8,5"}
{"compound": "Cc1ccc2c(N(C)C)c(C(=O)N[C@H]3CCc4ccccc43)cnc2c1-c1cc(Cl)cc(Cl)c1", "note": "[Example 19]", "pE50 (negative decadic logarithm of EC50)": "> 8,5"}
{"compound": "O=C(N[C@H]1CCCc2ccccc21)c1cnc2c(-c3cc(Cl)cc(Cl)c3)cccc2c1N1CCOCC1", "note": "[Example 20]", "pE50 (negative decadic logarithm of EC50)": "> 8,5"}
{"compound": "CN(C)c1c(C(=O)N[C@H]2CCc3ccccc32)cnc2c(-c3cc(Cl)cc(Cl)c3)c(F)ccc12", "note": "[Example 21]", "pE50 (negative decadic logarithm of EC50)": "> 8,5"}
{"compound": "CN(C)c1c(C(=O)N[C@H]2CCOc3ccccc32)cnc2c(-c3cc(Cl)cc(Cl)c3)c(F)ccc12", "note": "[Example 22]", "pE50 (negative decadic logarithm of EC50)": "> 8,5"}
{"compound": "CNc1c(C(=O)N[C@H]2CCOc3ccccc32)cnc2c(-c3cc(Cl)c(F)c(Cl)c3)cccc12", "note": "[Example 23]", "pE50 (negative decadic logarithm of EC50)": "7,5-8,5"}
{"compound": "O=C(N[C@H]1CCOc2ccccc21)c1cnc2c(-c3cccc(Cl)c3)cccc2c1N1CCOCC1", "note": "[Example 25]", "pE50 (negative decadic logarithm of EC50)": "> 8,5"}
{"compound": "O=C(N[C@H]1CCOc2ccccc21)c1cnc2c(-c3cc(Cl)cc(Cl)c3)cccc2c1-n1ccnc1", "note": "[Example 26]", "pE50 (negative decadic logarithm of EC50)": "> 8,5"}
{"compound": "O=C(N[C@H]1CCc2ccccc21)c1cnc2c(-c3cccc(Cl)c3)cccc2c1N[C@H]1CCc2ccccc21", "note": "[Example 27]", "pE50 (negative decadic logarithm of EC50)": "5,3-6,5"}
{"compound": "O=C(N[C@H]1CCc2ccccc21)c1cnc2c(-c3cccc(Cl)c3Cl)cccc2c1N[C@H]1CCc2ccccc21", "note": "[Example 28]", "pE50 (negative decadic logarithm of EC50)": "5,3-6,5"}
{"compound": "CN(C)c1c(C(=O)N[C@H]2CCOc3ccccc32)cnc2c(-c3cc(F)ccc3Cl)cccc12", "note": "[Example 29]", "pE50 (negative decadic logarithm of EC50)": "> 8,5"}
{"compound": "CN(C)c1c(C(=O)N[C@H]2CCOc3ccccc32)cnc2c(-c3ccc(F)c(F)c3)cccc12", "note": "[Example 30]", "pE50 (negative decadic logarithm of EC50)": "> 8,5"}
{"compound": "COc1cc(-c2cccc3c(N(C)C)c(C(=O)N[C@H]4CCOc5ccccc54)cnc23)ccc1F", "note": "[Example 31]", "pE50 (negative decadic logarithm of EC50)": "> 8,5"}
{"compound": "COc1c(F)ccc(-c2cccc3c(N(C)C)c(C(=O)N[C@H]4CCOc5ccccc54)cnc23)c1F", "note": "[Example 32]", "pE50 (negative decadic logarithm of EC50)": "> 8,5"}
{"compound": "Cc1c(F)cccc1-c1cccc2c(N(C)C)c(C(=O)N[C@H]3CCOc4ccccc43)cnc12", "note": "[Example 33]", "pE50 (negative decadic logarithm of EC50)": "> 8,5"}
{"compound": "CN(C)c1c(C(=O)N[C@H]2CCOc3ccccc32)cnc2c(-c3cccc(Cl)c3Cl)cccc12", "note": "[Example 34]", "pE50 (negative decadic logarithm of EC50)": "> 8,5"}
{"compound": "O=C(N[C@H]1CCc2ccccc21)c1cnc2c(-c3cccc(Cl)c3)cccc2c1N1CCOCC1", "note": "[Example 35]", "pE50 (negative decadic logarithm of EC50)": "> 8,5"}
{"compound": "Cc1c(Cl)cccc1-c1cccc2c(N(C)C)c(C(=O)N[C@H]3CCOc4ccccc43)cnc12", "note": "[Example 36]", "pE50 (negative decadic logarithm of EC50)": "> 8,5"}
{"compound": "CN(C)c1c(C(=O)N[C@H]2CCOc3ccccc32)cnc2c(-c3cc(Cl)cc(C(F)(F)F)c3)cccc12", "note": "[Example 39]", "pE50 (negative decadic logarithm of EC50)": "> 8,5"}
{"compound": "CN(C)c1c(C(=O)N[C@H]2CCOc3ccccc32)cnc2c(-c3cc(Cl)cc(Cl)c3)cc(F)cc12", "note": "[Example 40]", "pE50 (negative decadic logarithm of EC50)": "> 8,5"}
{"compound": "CN(C)c1c(C(=O)N[C@H]2CCOc3ccccc32)cnc2c(-c3cc(Cl)c(F)c(Cl)c3)cc(F)cc12", "note": "[Example 41]", "pE50 (negative decadic logarithm of EC50)": "> 8,5"}
{"compound": "O=C(N[C@H]1CCOc2ccccc21)c1cnc2c(-c3cc(Cl)cc(Cl)c3)cc(F)cc2c1N1CCOCC1", "note": "[Example 42]", "pE50 (negative decadic logarithm of EC50)": "> 8,5"}
{"compound": "Cc1cc(Cl)cc(-c2cccc3c(N(C)C)c(C(=O)N[C@H]4CCOc5ccccc54)cnc23)c1", "note": "[Example 44]", "pE50 (negative decadic logarithm of EC50)": "> 8,5"}
{"compound": "CN(C)c1c(C(=O)N[C@H]2CCOc3ccccc32)cnc2c(-c3ccc(F)c(Cl)c3)cccc12", "note": "[Example 45]", "pE50 (negative decadic logarithm of EC50)": "> 8,5"}
{"compound": "CN(C)c1c(C(=O)N[C@H]2CCOc3ccccc32)cnc2c(-c3cc(F)cc(Cl)c3)cccc12", "note": "[Example 46]", "pE50 (negative decadic logarithm of EC50)": "> 8,5"}
{"compound": "CN(C)c1c(C(=O)N[C@H]2CCOc3ccccc32)cnc2c(-c3cccc(OC(F)(F)F)c3F)cccc12", "note": "[Example 48]", "pE50 (negative decadic logarithm of EC50)": "> 8,5"}
{"compound": "CN(C)c1c(C(=O)N[C@H]2CCOc3ccccc32)cnc2c(-c3cc(F)cc(F)c3)cccc12", "note": "[Example 49]", "pE50 (negative decadic logarithm of EC50)": "> 8,5"}
